Screen size: about 310,000 compounds; about 2,200 (0.71%) showed an effect of 50% or more. Effects have a minus sign here. The list shows a part of the results.

The experiment deals with human ether-à-go-go-related gene (hERG) potassium channel (human, UniProt Q12809). The experiment in a line: primary screen, population patch clamp on CHO cells stably expressing hERG.
Chain of human ether-à-go-go-related gene (hERG) potassium channel (Q12809 whole entry, looked up): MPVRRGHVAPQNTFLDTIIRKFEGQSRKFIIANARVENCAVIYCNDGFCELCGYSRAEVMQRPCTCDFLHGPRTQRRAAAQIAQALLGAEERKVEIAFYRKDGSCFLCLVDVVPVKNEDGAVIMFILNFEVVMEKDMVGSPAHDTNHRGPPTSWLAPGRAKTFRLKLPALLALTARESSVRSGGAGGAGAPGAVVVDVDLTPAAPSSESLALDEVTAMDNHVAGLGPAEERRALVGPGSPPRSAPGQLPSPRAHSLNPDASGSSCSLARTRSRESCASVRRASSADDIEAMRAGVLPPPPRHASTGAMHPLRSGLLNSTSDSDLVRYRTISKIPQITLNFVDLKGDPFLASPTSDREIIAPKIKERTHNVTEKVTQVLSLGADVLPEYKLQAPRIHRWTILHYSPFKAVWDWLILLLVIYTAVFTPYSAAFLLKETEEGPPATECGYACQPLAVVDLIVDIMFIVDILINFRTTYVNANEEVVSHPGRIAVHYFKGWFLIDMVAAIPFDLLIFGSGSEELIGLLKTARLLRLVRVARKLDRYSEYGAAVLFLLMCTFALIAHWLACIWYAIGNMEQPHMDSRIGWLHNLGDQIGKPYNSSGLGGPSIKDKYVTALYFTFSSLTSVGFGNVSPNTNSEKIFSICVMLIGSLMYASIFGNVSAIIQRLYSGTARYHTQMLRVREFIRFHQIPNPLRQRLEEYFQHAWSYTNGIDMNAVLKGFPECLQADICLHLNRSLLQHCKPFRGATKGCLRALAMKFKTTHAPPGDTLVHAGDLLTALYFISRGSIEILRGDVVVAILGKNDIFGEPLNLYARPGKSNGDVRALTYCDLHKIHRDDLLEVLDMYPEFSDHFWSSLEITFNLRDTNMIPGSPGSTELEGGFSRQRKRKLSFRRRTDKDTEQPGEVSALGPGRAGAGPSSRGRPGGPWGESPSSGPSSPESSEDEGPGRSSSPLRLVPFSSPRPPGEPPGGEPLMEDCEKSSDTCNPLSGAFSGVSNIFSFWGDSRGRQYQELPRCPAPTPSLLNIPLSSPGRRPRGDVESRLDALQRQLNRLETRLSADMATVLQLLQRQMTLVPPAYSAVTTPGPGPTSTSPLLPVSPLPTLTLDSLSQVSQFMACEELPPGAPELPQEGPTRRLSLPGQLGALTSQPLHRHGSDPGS
Regarding `CCOC(=O)C(C)n1cnc2c(nnn2Cc2ccc(C)cc2)c1=O` (stereo not drawn), the “hERG current change (%, negative = inhibition) at 1uM” value is on record as 11.6%.
Regarding `O=C(O)c1cc(-c2ccc(Cl)cc2)n(-c2ccc(F)cc2)n1`, the “hERG current change (%, negative = inhibition) at 1uM” value is 6.76%.
In the case of `CCN(CC(=O)NCc1ccc(Cl)cc1)Cc1cc(=O)n2ccsc2n1`, the “hERG current change (%, negative = inhibition) at 1uM” value came out at 3.02%.
`Nc1nc(NCC(=O)O)nc(N2CCCCCC2)c1[N+](=O)[O-]`: the “hERG current change (%, negative = inhibition) at 1uM” value was 10.3%.
Consider `COc1ccc(C(=O)NCC(=O)N2CCCCC2)cc1OC`, for which the “hERG current change (%, negative = inhibition) at 1uM” value was determined as 14.8%.
On to `Br.O=C(Cn1c(NCCCO)nc2ccccc21)c1ccc(Br)cc1`, for which the “hERG current change (%, negative = inhibition) at 1uM” value came to 3.02%.
With `CC(=O)Nc1ccc(NC(=O)C(NS(=O)(=O)c2cccc3nsnc23)C(C)C)cc1` (stereo not drawn), the “hERG current change (%, negative = inhibition) at 1uM” value is 20.4%.
Next, `CCc1nonc1NC(=O)c1oc2ccc(F)cc2c1C`: 15.5%; `COc1ccc(/C=C(\C#N)c2nc3ccc(C)cc3[nH]2)cc1Oc1ccc(C(F)(F)F)cc1[N+](=O)[O-]`: 11.5%; `Cc1cccc(C)c1NC(=O)/C(C#N)=C/c1ccc(-c2ccc(C(=O)O)cc2)o1`: 6.45%.
`CC1(C)CC(C(N)=S)CCO1` (stereo not drawn): the “hERG current change (%, negative = inhibition) at 1uM” value turned out to be 18.8%.
For `COc1cccc(NC(=O)CN(C)C(=O)c2cc3c(s2)CCC3)c1`, the “hERG current change (%, negative = inhibition) at 1uM” value is recorded as 17.9%.
`C=CCOc1ccc(C(=O)n2cc(C(=O)OC)c3ccccc32)cc1`: the “hERG current change (%, negative = inhibition) at 1uM” value was 10.6%.
Take `CC1CC(=O)Nc2ccccc2N1C(=O)Cn1cnc2ccccc2c1=O` (stereo not drawn): the “hERG current change (%, negative = inhibition) at 1uM” value was determined as 2.26%.
Regarding `CCCCCCCn1c(C)nnc1-c1cnn(C)c1N`, the “hERG current change (%, negative = inhibition) at 1uM” value is reported as 6.07%.
Take `COc1cc(-c2nc3cccc(C)n3c2NCC2CCCO2)ccc1O` (stereo not drawn): the “hERG current change (%, negative = inhibition) at 1uM” value is given as -4.27%.
As for `COc1ccc(-c2c(N)n[nH]c2C)cc1OC`, the “hERG current change (%, negative = inhibition) at 1uM” value stood at 15.7%.
Turning to `CN(C)c1ccc(C2OC(=O)C(C)(C)C(=O)C2(C)C)cc1` (stereo not drawn), the “hERG current change (%, negative = inhibition) at 1uM” value stood at 14.8%.
`CCN(CC)C(=O)c1sc(NC(=O)c2ccc(C)c([N+](=O)[O-])c2)c(C#N)c1C`: the “hERG current change (%, negative = inhibition) at 1uM” value came to 17.1%.
As for `COC(=O)c1ccc(CSc2ncnc3c2nnn3-c2ccc(F)cc2)o1`, the “hERG current change (%, negative = inhibition) at 1uM” value amounted to 9.31%.
In the case of `CCn1ncc(/C=N\NC(=O)c2cc(-c3ccc(C)cc3C)nc3ccccc23)c1C`, the “hERG current change (%, negative = inhibition) at 1uM” value turned out to be 9.35%.
Regarding `COc1cc(NC(=O)Cc2ccc(OC)c(S(=O)(=O)N3CCOCC3)c2)c(OC)cc1Cl`, the “hERG current change (%, negative = inhibition) at 1uM” value was found to be 5.86%.
For `Cc1ccc(N2C(=O)C3C4CC(=O)C(c5ccccc54)C3C2=O)cc1C` (stereo not drawn), the “hERG current change (%, negative = inhibition) at 1uM” value turned out to be 4.29%.
Next, `COc1ccc(C(=O)NC2CCCCCC2)cc1OC1CCN(C(C)=O)CC1`: 7.33%; `COc1ccc(/C=C/C(=O)CCC(=O)O)cc1`: 9.25%; `Cc1cccc(C2N=C(N)Nc3nc4ccccc4n32)c1` (stereo not drawn): -0.58%.
Take `Cc1nn(-c2ccccc2)c(C)c1S(=O)(=O)O`: the “hERG current change (%, negative = inhibition) at 1uM” value is recorded as 6.07%.
Take `CCCCONc1ncnc2nonc12`: the “hERG current change (%, negative = inhibition) at 1uM” value is listed as 11.2%.
For the molecule `CCN(CC)C(=O)Cc1cn(C)c2ccccc12`, the “hERG current change (%, negative = inhibition) at 1uM” value was found to be 10.6%.
As to `COc1ncc(-c2ccc3c(c2)S(=O)(=O)c2cccc(C(=O)NCc4ccco4)c2C3=O)cn1`, the “hERG current change (%, negative = inhibition) at 1uM” value is listed as 11.8%.
Regarding `NC(=O)c1cc(S(=O)(=O)NCCCc2ccco2)cs1`, the “hERG current change (%, negative = inhibition) at 1uM” value is given as 8.58%.
Next, `CC(=O)NCCC(=O)NCc1ccc(F)cc1`: -14.2%.
As to `COCCn1c(=NC(=O)CCS(=O)(=O)c2ccccc2)sc2cc(C)ccc21`, the “hERG current change (%, negative = inhibition) at 1uM” value was determined as 7.44%.
As to `Cc1nc(=O)c(-c2ccccc2)c(C)n1-c1ccc(C(=O)O)cc1`, the “hERG current change (%, negative = inhibition) at 1uM” value came out at 14.7%.
The figure for `O=C(c1cc2cc(Br)ccc2oc1=O)N1CCCC1` is 7.59%; for `Cc1onc(C(=O)N2CCN(Cc3ccccc3)CC2)c1[N+](=O)[O-]` it is -0.669%; for `O=C(NCCCN1CCOCC1)C1CCN(S(=O)(=O)c2c(Cl)cccc2Cl)CC1` it is 10.4%.
For the molecule `O=C(CCc1ccccc1)Nc1cc(Cl)ccc1O`, the “hERG current change (%, negative = inhibition) at 1uM” value worked out at 6.49%.
As to `Cn1c(O)c(N=Nc2ccc(S(=O)(=O)N3CCOCC3)cc2)c(=O)n(C)c1=O`, the “hERG current change (%, negative = inhibition) at 1uM” value worked out at 19.9%.
For the molecule `Cc1cccc(CC2CC(=O)N(c3ccccc3)C2=O)c1` (stereo not drawn), the “hERG current change (%, negative = inhibition) at 1uM” value was 4.5%.
With `COc1ccc(NC(=O)CS(=O)CC(=O)Nc2ccc(F)cc2F)cc1` (stereo not drawn), the “hERG current change (%, negative = inhibition) at 1uM” value is reported as -2.61%.
With `Cc1cc(-c2nc(C)c(-c3nnc(SCC(=O)Nc4cc(Cl)cc(Cl)c4)n3C)s2)no1`, the “hERG current change (%, negative = inhibition) at 1uM” value was 6.47%.
Turning to `O=C(Nc1ccc(S(=O)(=O)N2CCCC2)cc1)c1c(F)cccc1F`, the “hERG current change (%, negative = inhibition) at 1uM” value turned out to be 15.3%.
The figure for `CCOC(=O)c1c(CN2CCOCC2)n(C)c2cc(Br)c(O)c(CN(C)C)c12` is -3.12%; for `Cc1cc(C(=O)NCc2ccco2)no1` it is 8.74%.

The record behind these values is PMC4336329 (PLoS ONE, 2015).
